Measurements from the supplement of paper PMC3334620.
In all, about 33,000 sequences were measured (“E-score (-0.5 to 0.5)”: median about -0.021, highest 2% from about 0.32 on). Some of the results follow.

These sequences were tested against T1, Zap1 (UniProt P47043) (assay: PBM E-score (8-mer binding enrichment) (E-score (-0.5 to 0.5)); higher = stronger / more preferred TF binding; most listed sequences are background and not binding sites). Details: protein concentration: 200 nM; construct: GST-full length.
T1 sequence: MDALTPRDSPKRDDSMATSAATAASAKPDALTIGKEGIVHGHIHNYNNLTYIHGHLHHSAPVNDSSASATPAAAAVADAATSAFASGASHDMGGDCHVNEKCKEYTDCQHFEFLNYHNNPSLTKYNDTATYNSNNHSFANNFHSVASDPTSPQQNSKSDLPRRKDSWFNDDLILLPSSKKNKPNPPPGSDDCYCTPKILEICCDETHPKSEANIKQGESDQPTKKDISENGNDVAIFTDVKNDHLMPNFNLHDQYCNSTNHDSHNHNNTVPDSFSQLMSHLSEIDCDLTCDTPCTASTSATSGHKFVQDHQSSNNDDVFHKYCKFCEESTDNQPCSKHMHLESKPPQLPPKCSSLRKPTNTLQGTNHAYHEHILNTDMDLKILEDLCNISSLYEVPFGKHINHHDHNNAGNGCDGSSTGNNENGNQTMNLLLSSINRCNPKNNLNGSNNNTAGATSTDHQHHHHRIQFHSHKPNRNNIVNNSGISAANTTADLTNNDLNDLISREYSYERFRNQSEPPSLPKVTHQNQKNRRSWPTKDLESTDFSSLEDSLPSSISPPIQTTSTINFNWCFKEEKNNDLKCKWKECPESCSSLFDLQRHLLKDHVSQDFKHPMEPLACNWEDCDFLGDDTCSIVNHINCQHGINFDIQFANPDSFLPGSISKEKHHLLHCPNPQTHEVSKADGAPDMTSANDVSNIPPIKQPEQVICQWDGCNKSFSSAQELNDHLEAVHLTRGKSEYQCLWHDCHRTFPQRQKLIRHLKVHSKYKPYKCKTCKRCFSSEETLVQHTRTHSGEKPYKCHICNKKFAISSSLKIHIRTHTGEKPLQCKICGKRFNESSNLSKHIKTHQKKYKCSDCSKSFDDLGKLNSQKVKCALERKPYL
Summary of the method: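 The E-score, a modified Wilcoxon-Mann-Whitney statistic, was computed by the Universal PBM Analysis Suite for every ungapped eight-base word pooled with its reverse complement. Scans behind it were normalised with masliner after bound GST-tagged yeast transcription factors were detected with fluorescent anti-GST. The proteins, at about 100-200 nM, had been applied to universal all-10-mer Agilent arrays made double-stranded by primer extension.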

Row | Sequence | PBM E-score
1 | AACGTGTA | -0.176
2 | AGAAGACG | 0.106
3 | GAACAACA | 0.0722
4 | CACTCAAA | 0.0674
5 | CGGGCAGA | -0.0649
6 | CAGTGCGG | -0.149
7 | CTTTCTAC | -0.00024
8 | TCATTACA | 0.169
9 | CTAAACTC | -0.0925
10 | AGATTACT | -0.0381
11 | ATTACATA | -0.0412
12 | ACCGTGGC | -0.0956
13 | AATCAAAG | 0.0185
14 | ATGATGAC | -0.0562
15 | CTCAGCAA | 0.0486
16 | AACACATG | 0.112
17 | CAGGGCTA | -0.0311
18 | AGTCTATA | 0.0912
19 | AATTAAAG | 0.228
20 | GACGGCGA | -0.215
21 | ACATTCCG | -0.00407
22 | AACGAAGT | -0.209

Row | Sequence | PBM E-score
23 | AAGCGAAA | 0.00249
24 | CGCGCGAA | 0.0563
25 | AGAACGCG | 0.0324
26 | CCAGGAAA | 0.0576
27 | ACCATCTG | -0.00679
28 | CCTTCCTA | -0.197
29 | CCACTGTC | -0.143
30 | AGTTAAAG | 0.111
31 | CGCTTCTA | -0.016
32 | GCACACTA | 0.0365
33 | TGCTAGCA | -0.257
34 | AAGTGCGA | -0.197
35 | GCGTTTAA | -0.102
36 | CCGCCTTC | -0.0359
37 | CCCGAAGG | 0.0992
38 | CTAAGCGA | -0.186
39 | ATGACTAC | -0.228
40 | CCAGTAAG | 0.0362
41 | GCTCCTAC | -0.0998
42 | GCGCAGCA | -0.37
43 | CATGTCGC | -0.194
44 | ACGTCCCA | -0.315

Row | Sequence | PBM E-score
45 | AGCTAGGC | -0.374
46 | ACTGCGAA | -0.0352
47 | AGGGTAGA | 0.135
48 | GGTACGGA | 0.0574
49 | AGCCCCCG | -0.222
50 | CGCCAACG | -0.0762
51 | ACAAGATA | 0.0306
52 | GGACGGAA | -0.191
53 | GCAGCGAC | -0.0984
54 | GGTTGCCA | 0.267
55 | ACTGGCGC | -0.191
56 | CCCTTCTA | -0.0705
57 | AGCCGCCT | -0.203
58 | GGCACAGA | -0.267
59 | CGCGGACG | -0.236
60 | ACTCTGAT | -0.0856
61 | GCTATCCC | -0.263
62 | ACGCTTTG | -0.0152
63 | CAGCCTAG | -0.158
64 | ATCACGAG | -0.16
65 | AGGACCAG | -0.0376
66 | AAGCAAAT | -0.123

Row | Sequence | PBM E-score
67 | AGCGTAAG | -0.181
68 | ATTGAACG | 0.00357
69 | ATCGTTGC | -0.0754
70 | CTGGTAAA | 0.0769
71 | ACTGCCTA | -0.175
72 | AAAAGTAA | 0.257
73 | CCACCTCG | 0.02
74 | CACGACGG | -0.104
75 | CCGAAAGG | 0.0949
76 | CGATAGCC | 0.0302
77 | AGGTGAAT | 0.0514
78 | ACATCCAG | -0.052
79 | TGTATGAA | 0.0247
80 | GGGATTCA | 0.0113
81 | AACTTCAT | 0.0766
82 | CCTGTTCG | -0.0257
83 | CTCGTATA | -0.0458
84 | AGAGAAAC | -0.0339
85 | CCAATGCA | -0.0366
86 | GTGACTGA | -0.00258
87 | AACCGGCC | 0.151
88 | GCGAGAAA | 0.0526

Row | Sequence | PBM E-score
89 | GTAAACGA | 0.0465
90 | CTGGGGCA | -0.251
91 | TAACGTCA | 0.0475
92 | AGAACCCC | 0.294
93 | AAGGCGCA | -0.0748
94 | AGTGCTAT | -0.339
95 | CAATGAGG | -0.0414
96 | CAATAGGC | -0.306
97 | CTGTATGC | -0.14
98 | GAAAGATC | -0.146
99 | GGGGGGAA | -0.411
100 | GAGGGGCA | -0.281
101 | GGAAGGTA | 0.158
102 | GAGTAACC | 0.399
103 | GCCTCGTA | 0.0499
104 | GAACGTGA | 0.0105
105 | ACCCTTTC | 0.298
106 | ACAGACGC | -0.197
107 | CACCTGCA | -0.0838
108 | GTAGCCGA | -0.0612
109 | GACGCTCC | -0.265
